Measured values: article PMC12040169 (PLOS Biology, 2025)
This is one part of the list.

tested on: T1, C. trachomatis L2/434/Bu expressing GFP (CTL2-GFP); set-up: species or system HeLa; C. trachomatis total inclusion area by high-content imaging, normalised to DMSO; details: total inclusion area; 28.5 h, 10 µM; inhibitor
T1 construct: L2/434/Bu GFP intracellular growth in HeLa cells
In short: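 Following bulk GFP and resorufin fluorescence reads, infected cells were fixed, Hoechst-stained and imaged on a high-content platform. Inclusion total area and number per well served as growth proxies; nuclei counts indicated host viability. MICs were derived as for the fluorescence assay.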

Compared with COc1ccc(C(=O)CCCN2CCc3c([nH]c4ccc(OC)cc34)C2)cc1 [CBK083515T], COC(=O)CCC(=O)N1CCc2c([nH]c3ccccc23)C12CCN(CCCc1ccccc1OC)C2 (stereo not drawn) [CBK074952] is lower in “% of control remaining” value: 81.9647 for the first, 81.1537 for the second.

First: CS(=O)(=O)c1cccc(C(=O)Nc2cnc(-c3ccc(F)c(Cl)c3)c(-c3cccnc3)n2)c1 [CBK036779]
Second: O=C1CCC(C(=O)Nc2cnc(-c3cccc(C(F)(F)F)c3)c(-c3cccnc3)n2)=NN1 [CBK036950]
The “% of control remaining” value of the first is higher: 91.2973 for the first, 84.3106 for the second.

First: CCn1c(=O)n(CC(=O)NCc2cccs2)c2cccnc21 [CBK283811]
Second: Cc1cc(=O)n(CC(=O)NC(C)c2ccccn2)c2ccccc12 (stereo not drawn) [CBK281820]
The “% of control remaining” value of the first is lower: 100.359 for the first, 127.931 for the second.

Compared with Cc1ccc(OCCn2c(=N)n(CCN3CCOCC3)c3ccccc32)cc1 [CBK269085B], Cc1ccc(Cn2c(CN3CCOCC3)nc3c2c(=O)n(C)c(=O)n3C)cc1 [CBK269583] is lower in “% of control remaining” value: 84.622 for the first, 74.6227 for the second.

Going from NS(=O)(=O)c1ccc(NC(=S)NC(=O)/C=C/c2ccc([N+](=O)[O-])cc2)cc1 [CBK262176] to NS(=O)(=O)c1ccc(NC(=S)NNC(=O)c2ccc(Br)o2)cc1 [CBK266972], the “% of control remaining” value rises from 106.222 to 107.917.

First: COc1cc(C(=O)O)ccc1Oc1cnn(-c2ccccc2)c(=O)c1Cl [CBK287032]
Second: C=CCOc1c(Br)cc(CNc2ccc(C(=O)O)cc2)cc1OC [CBK267202]
The “% of control remaining” value of the first is higher: 85.1392 for the first, 56.1824 for the second.

Going from Cc1ccc(-c2nc3ccccc3[nH]2)cc1NC(=O)COc1cccc([N+](=O)[O-])c1 [CBK265932] to Cc1ccc([N+](=O)[O-])cc1S(=O)(=O)Nc1ccc(O)c(Sc2nc3ccccc3s2)c1 [CBK266936], the “% of control remaining” value falls from 140.41 to 126.716.

First: O=C(CCc1cccnc1)NC1Cc2ccccc2C1 [CBK200352]
Second: O=C(c1ccccc1)N1C[C@@H]2CCCCN(Cc3cccnc3)[C@@H]2C1 [CBK285512]
The “% of control remaining” value of the first is higher: 94.4408 for the first, 92.9805 for the second.

First: CC(C)(C)OC(=O)NC1CCC(NCc2cc(F)cc(F)c2)CC1 (stereo not drawn) [CBK056689]
Second: CC(C)(C)c1cc(CCCOC(=O)CNC2CCCCC2)cc(C(C)(C)C)c1O [CBK261998]
The “% of control remaining” value of the first is lower: 88.3829 for the first, 95.9762 for the second.

Going from Cc1ccc(NC(=O)C2CCCCC2C(=O)O)cc1Cl (stereo not drawn) [CBK286938] to Cc1ccc(NC(=O)N2CCC(C(=O)O)CC2)cc1 [CBK156077], the “% of control remaining” value rises from 84.0197 to 98.9852.

Compared with O=C1NCC2(CCCN(Cc3ccccc3F)C2)Oc2ccccc21 (stereo not drawn) [CBK284901], Cc1ccccc1Oc1ccccc1NC(=O)CN1CCCCC1 [CBK015781C] is lower in “% of control remaining” value: 107.971 for the first, 79.429 for the second.

Compared with CCCn1ccnc1-c1cn(Cc2cc(C(C)(C)C)n[nH]2)nn1 [CBK306791], CCCn1ccnc1-c1cn(CCc2cc(O)nc(C)n2)nn1 [CBK306675] is lower in “% of control remaining” value: 69.2467 for the first, 56.9356 for the second.

Going from C[C@@H](c1ccccc1)n1c(=O)[nH]c2ncc(-c3cccc(C(=O)NCCN(C)C)c3)nc21 [CBK064376] to O=C(CSc1ccc2ccccc2n1)NNC(=O)c1cccc([N+](=O)[O-])c1 [CBK262506], the “% of control remaining” value falls from 124.673 to 95.8979.

First: Cc1ccn(CCNC(=O)CC2CC3CCC2C3)n1 (stereo not drawn) [CBK282068]
Second: Cc1nccn1CCC1CCN(C(=O)CC2CCCCO2)CC1 (stereo not drawn) [CBK281974]
The “% of control remaining” value of the first is higher: 91.722 for the first, 86.4891 for the second.

Going from O=C(O)CC1C(=O)NCCN1Cc1ccccc1Cl (stereo not drawn) [CBK270114] to O=C1CN(C(=O)NC2CCc3ccccc32)CCN1 (stereo not drawn) [CBK155878], the “% of control remaining” value rises from 92.4773 to 99.1436.

Going from CCCC(=O)c1ccc(S(=O)(=O)N2CCN(Cc3cccc(Br)c3)CC2)cc1 [CBK063146] to CC(=O)c1cccc(NC(=O)Nc2cccc(S(=O)(=O)N3CCOCC3)c2)c1 [CBK266996], the “% of control remaining” value rises from 70.3945 to 103.307.

Going from CC(C)c1cc(C(=O)NC2CCOc3ccccc32)no1 (stereo not drawn) [CBK283065] to Cc1cc(CNC(=O)C(C)n2cnc3ccccc32)on1 (stereo not drawn) [CBK282196], the “% of control remaining” value rises from 78.7145 to 97.1441.

Going from NC(=O)c1cccc(OCCOc2nccnc2N2CCNCC2)c1 [CBK014338G] to Cc1nc(-c2ccccc2)ncc1COC(=O)N1CCOCC1 [CBK200147], the “% of control remaining” value rises from 80.972 to 88.7298.

Going from COc1ccc(CNC(=O)C2CC(=O)N(c3ccc(O)cc3)C2)cc1 (stereo not drawn) [CBK270125] to CS(=O)(=O)c1ccccc1C(=O)n1ccn(-c2ccc(Oc3ccccc3)cc2)c1=O [CBK106647], the “% of control remaining” value rises from 86.3317 to 109.316.

Going from CC(C)N(C(=O)CN1C(=O)N2CCCN=C2c2ccccc21)C(C)C [CBK284400] to COCCn1c(SC2CCN(C)C2=O)nc2ccccc21 (stereo not drawn) [CBK305131], the “% of control remaining” value falls from 88.506 to 53.9875.

Compared with Cc1cc(C)n(CCCNC(=O)Nc2cccnc2)n1 [CBK304820], CN1CCN(CCCNC(=O)c2ccc(-c3ccoc3)nc2)CC1 [CBK156257] is higher in “% of control remaining” value: 84.1878 for the first, 118.939 for the second.

Compared with O=C(O)CCc1ccc(-c2cn3ccnc3c(N3CCOCC3)n2)cc1 [CBK066166], Clc1ccc(-c2cc(N3CCN(c4ccccn4)CC3)ncn2)cc1 [CBK091085] is lower in “% of control remaining” value: 122.286 for the first, 121.188 for the second.

First: O=C(NCCCn1ccnn1)c1cccc(S(=O)(=O)N2CCCCC2)c1 [CBK304660]
Second: Cn1ccnc1C(O)C1CCN(C(=O)NCCc2cccc(F)c2)CC1 (stereo not drawn) [CBK304657]
The “% of control remaining” value of the first is lower: 44.9295 for the first, 52.5081 for the second.

Compared with O=C(c1ccco1)N1CCC[C@H]1[C@H](O)c1nccs1 [CBK284286], O=C(c1ccco1)N1CCN(C(=S)Nc2ccc(S(=O)(=O)Nc3ncccn3)cc2)CC1 [CBK267096] is lower in “% of control remaining” value: 68.2926 for the first, 62.8953 for the second.

First: c1ccc(CSc2nc3ccccc3s2)nc1 [CBK027737]
Second: c1ccc2sc(CCCCc3nc4ccccc4s3)nc2c1 [CBK261248]
The “% of control remaining” value of the first is lower: 54.2201 for the first, 107.974 for the second.

Going from O=S(=O)(NC1c2cccc3cccc(c23)C1Sc1ncccn1)c1ccc(Cl)cc1 (stereo not drawn) [CBK264638] to O=S(=O)(Nc1cnc2ccccc2c1)c1cccs1 [CBK043694], the “% of control remaining” value rises from 94.4288 to 104.371.

Compared with Oc1ccc(Cl)cc1/C=N/c1ccc(-c2cc(-c3ccc(/N=C/c4cc(Cl)ccc4O)cc3)ncn2)cc1 [CBK261626], Cn1c(COc2ccccc2)nnc1SCC(=O)c1ccc(-c2ccccc2)cc1 [CBK267426] is higher in “% of control remaining” value: 98.369 for the first, 99.2786 for the second.

Compared with O=C(Nc1ccc(-c2c3ccccc3c(-c3ccc(NC(=O)c4cccc5ccccc45)cc3)c3ccccc23)cc1)c1cccc2ccccc12 [CBK261164], O=C(NC(=O)C1CCN(CCc2cccc(C(F)(F)F)c2)CC1)Nc1cccc2ccccc12 [CBK035070] is lower in “% of control remaining” value: 97.6707 for the first, 89.3998 for the second.

Going from CCOC(=O)N1CCC(NC(=O)N2CCN(C3CCN(C)CC3)CC2)CC1 [CBK156113] to CCOc1cc(NC2CCN(C(=O)NCC(F)F)CC2)ncn1 [CBK305485], the “% of control remaining” value falls from 98.7163 to 76.408.

Compared with Clc1ccc(SCCCNCCN2CCOCC2)cc1 [CBK268603C], CN(C)CCN1CCN(c2ccc(-c3ccsc3)cn2)CC1 [CBK036915] is higher in “% of control remaining” value: 83.2391 for the first, 109.765 for the second.

Compared with O=C(c1cc(Br)cc2c1OCC2)N1CCCCC1 [CBK007109], COc1ccccc1N1CCN(C(=O)NCC2CCCCC2)CC1 [CBK155588] is higher in “% of control remaining” value: 93.8083 for the first, 103.384 for the second.

First: CCC1(CC)OC(NC2CCCc3ccccc32)=NC1=O (stereo not drawn) [CBK126555]
Second: CC[C@H](Cn1ncc2ccccc2c1=O)NC(=O)C(C)(C)C [CBK284304]
The “% of control remaining” value of the first is higher: 75.7709 for the first, 65.9143 for the second.

Going from O=C1c2cc(S(=O)(=O)NCc3ccco3)ccc2-c2ccc(S(=O)(=O)NCc3ccco3)cc21 [CBK262250] to O=C(O)c1cccc(NC(=O)c2ccc3c(c2)C(=O)N(Cc2cccnc2)C3=O)c1 [CBK265523], the “% of control remaining” value rises from 93.3263 to 100.776.

Compared with CCN(CC)C(=O)c1cccc(NC(=O)Cc2cn3ccsc3n2)c1 [CBK305353], CCCn1cc(C(CC(=O)O)C(=O)O)c2ccccc21 (stereo not drawn) [CBK267345] is higher in “% of control remaining” value: 44.2758 for the first, 111.963 for the second.

Compared with COCc1nnc(Sc2cc(NC(C)C)ncn2)s1 [CBK093784], Oc1cc(Cl)c(-c2ccccc2)nn1 [CBK022028] is lower in “% of control remaining” value: 84.7996 for the first, 75.5939 for the second.

Going from CN(CC1(C)COC1)C(=O)c1ccc2c(c1)ncn2C1CC1 [CBK281718] to CCn1cc(NC(=O)NC2CCN(c3ncccc3C#N)CC2)c(C)n1 [CBK307213], the “% of control remaining” value falls from 101.559 to 50.1218.

First: CCOC(=O)C1(NC(=O)C2(Oc3cccnc3C)CCNCC2)CCC1 [CBK306688]
Second: Cc1noc(C)c1NC(=O)N(Cc1ccc(-c2ccccc2)cc1)CC1CCNCC1 [CBK056721]
The “% of control remaining” value of the first is higher: 94.7179 for the first, 93.521 for the second.

First: N#Cc1ccc(Oc2cccc(C(F)(F)F)c2)c(F)c1 [CBK002801]
Second: CN(C)c1cccc(-c2cncc(Nc3cccc(C(F)(F)F)c3)n2)c1 [CBK065786]
The “% of control remaining” value of the first is lower: 95.5807 for the first, 119.739 for the second.

First: Cc1nn(C)c(C)c1CCn1cncc1-c1ccc2c(c1)CC(C)N2C (stereo not drawn) [CBK281788]
Second: O=C(c1n[nH]c2c1CCCC2)N1CC(=O)N(CCc2ccccc2)C(=O)C1 [CBK288110]
The “% of control remaining” value of the first is lower: 117.123 for the first, 134.712 for the second.

First: c1ccc(-c2ccc(Nc3ccc4c(c3)OCCO4)nc2)cc1 [CBK037802]
Second: CC1(C(=O)O)NC(c2ccccc2O)C2C(=O)N(Cc3ccccc3)C(=O)C21 (stereo not drawn) [CBK218007]
The “% of control remaining” value of the first is lower: 95.8685 for the first, 97.2238 for the second.

With NC(=O)COc1ccccc1O [CBK261029] the “% of control remaining” value was 101.584.
